# Measured values published in paper PMC4336329 (PLoS ONE, 2015).
# In all, about 310,000 compounds went through this assay and about 14,000 (4.5%) showed an effect of 50% or more. Effects have a minus sign here. The list shows a part of the results.
# Target: human ether-à-go-go-related gene (hERG) potassium channel (human, UniProt Q12809)
# Assay: primary screen, population patch clamp on CHO cells stably expressing hERG
# 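Further: peak tail current of the secondary pulse compared with the same well before compound.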
# Sequence of human ether-à-go-go-related gene (hERG) potassium channel (Q12809 whole entry, looked up): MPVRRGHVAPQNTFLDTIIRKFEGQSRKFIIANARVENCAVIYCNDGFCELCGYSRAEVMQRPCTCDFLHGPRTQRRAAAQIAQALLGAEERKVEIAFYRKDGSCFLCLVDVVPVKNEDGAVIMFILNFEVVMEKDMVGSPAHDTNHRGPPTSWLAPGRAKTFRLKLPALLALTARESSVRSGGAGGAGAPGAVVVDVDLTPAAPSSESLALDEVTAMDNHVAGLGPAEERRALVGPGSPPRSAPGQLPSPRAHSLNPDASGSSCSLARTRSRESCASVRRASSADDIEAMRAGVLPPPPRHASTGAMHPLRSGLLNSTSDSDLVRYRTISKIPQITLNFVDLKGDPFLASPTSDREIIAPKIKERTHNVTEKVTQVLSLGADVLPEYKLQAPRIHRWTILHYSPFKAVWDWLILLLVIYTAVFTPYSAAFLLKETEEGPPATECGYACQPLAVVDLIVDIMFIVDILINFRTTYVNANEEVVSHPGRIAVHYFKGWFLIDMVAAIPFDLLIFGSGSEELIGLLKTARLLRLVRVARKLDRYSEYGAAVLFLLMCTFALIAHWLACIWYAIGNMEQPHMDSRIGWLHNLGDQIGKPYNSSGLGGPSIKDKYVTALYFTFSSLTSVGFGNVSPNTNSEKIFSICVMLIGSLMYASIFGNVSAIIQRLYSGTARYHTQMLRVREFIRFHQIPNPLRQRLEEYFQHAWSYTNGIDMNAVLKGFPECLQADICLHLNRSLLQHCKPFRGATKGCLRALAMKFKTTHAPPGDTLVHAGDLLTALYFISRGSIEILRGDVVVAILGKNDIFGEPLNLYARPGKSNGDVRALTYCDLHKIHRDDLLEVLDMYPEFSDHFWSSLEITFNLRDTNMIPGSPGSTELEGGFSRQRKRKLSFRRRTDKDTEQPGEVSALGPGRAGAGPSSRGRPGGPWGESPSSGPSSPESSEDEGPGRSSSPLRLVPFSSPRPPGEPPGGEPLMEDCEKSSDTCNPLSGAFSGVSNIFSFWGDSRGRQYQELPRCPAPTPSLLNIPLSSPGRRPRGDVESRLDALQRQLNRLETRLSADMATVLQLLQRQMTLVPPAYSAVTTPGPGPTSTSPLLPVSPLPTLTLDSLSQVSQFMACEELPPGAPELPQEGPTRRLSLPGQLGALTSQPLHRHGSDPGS
row,SMILES,"hERG current change (%, negative = inhibition) at 10uM [%]"
1,Cc1ccc(C(=O)N(CCC2=CCCCC2)c2c(N)n(Cc3ccccc3)c(=O)[nH]c2=O)o1,-16.4
2,CCN(CC)Cc1cc(C(C)=O)ccc1O.Cl,2.32
3,O=C(CNC(=O)c1ccccc1)c1ccccc1,4.42
4,CCCCNC1CCS(=O)(=O)C1 (stereo not drawn),7.23
5,Cc1ccc(/C=C2/C(=O)NC(=O)N(C)C2=O)cc1,17.2
6,S=C(N=Nc1ccccc1)NNc1ccccc1,8.75
7,COc1cccc(CNC(=O)CCc2nnc3ccc(NCCCN4CCCC4=O)nn23)c1,26.5
8,C/C(=N\NC(=O)c1ccc(O)cc1O)c1cccnc1,17.9
9,Cc1ccc(C(=O)NC(=S)Nc2cccc(-c3nc4ccccc4s3)c2)cc1,15.9
10,CC1CCC(NC(=O)C(Cc2ccccc2)n2cccc2)CC1 (stereo not drawn),-14.9
11,CNC(=S)N1CCN=C1Nc1nc(C)cc(C)n1,6.29
12,Cc1ccc(S(=O)(=O)N2CCC(C(=O)NCCN3CCOCC3)CC2)cc1C,8.7
13,CCOP(=O)(OCC)c1nc(-c2ccccc2)oc1NCc1ccccc1,-2.95
14,CC(=O)N1CCN(C(=O)CNC(=O)c2cccs2)CC1,-3.57
15,Cc1ccccc1C(=O)Oc1cccc(Nc2ncnc3ccccc23)c1,-3.38
16,Cc1cccc(C)c1NC(=O)COc1ccccc1C(=O)Nc1ccc(Br)cn1,14.4
17,Cc1ccccc1N1C(=O)C2C3CC(=O)C(c4ccccc43)C2C1=O (stereo not drawn),1.95
18,Cc1c(NC(=S)NC(=O)c2cccc([N+](=O)[O-])c2)c(=O)n(-c2ccccc2)n1C,-5.88
19,O=C(Nc1ccc(Nc2ccccc2)cc1)c1c(Cl)cccc1Cl,12.3
20,O=C(CCNC(=O)c1ccco1)Nc1ccc(OC(F)(F)F)cc1,2.54
21,Cc1ccc(NC(=O)Nc2cccc(C)n2)c(C)c1,-10.7
22,Cc1cc(C)nc(NS(=O)(=O)c2ccc(NC(=O)c3cccs3)cc2)n1,1.23
23,O=C(O)CCCCCCCCCC(=O)c1cccs1,20.6

row,SMILES,"hERG current change (%, negative = inhibition) at 10uM [%]"
1,COc1ccc(NC(=O)CNc2ccc(C#N)cc2)cc1,-18.2
2,O=C(Nc1nccs1)C(F)(F)C(F)(F)C(F)(F)C(=O)Nc1nccs1,12.7
3,CCn1cc(C(=O)OCC(=O)c2cc(C)n(-c3ccc(OC(F)F)cc3)c2C)c(=O)c2ccc(C)nc21,-27.9
4,O/N=C/c1ccc(OCc2ccccc2)c(Br)c1,30
5,CC1=CC(C)(C)N2C(=O)C3(NCCc4c3[nH]c3ccccc43)c3cc(C)cc1c32 (stereo not drawn),13.8
6,CC(=O)Oc1ccc2c(=O)oc(-c3ccccc3C)nc2c1,-0.478
7,CN(C)S(=O)(=O)c1ccc(N2CCCC2)c(C(=O)NCCc2ccc(F)cc2)c1,-31.9
8,C=C(C)Cn1c(CNC(C)=O)nc2ccccc21,1.73
9,COc1ccc2oc(=O)c(C(=O)N3c4ccccc4CC3C)cc2c1 (stereo not drawn),-21.6
10,CCC1CCc2sc(C(=O)N(C)CC(=O)Nc3cccc(OC)c3)cc2C1 (stereo not drawn),-2.55
11,C=CCN1C(=O)C2C3CC(=O)C(c4ccccc43)C2C1=O (stereo not drawn),26.8
12,COCc1[nH]nc2c1C(c1ccccc1Cl)C(C#N)=C(N)O2 (stereo not drawn),7.1
13,O=C(Nc1ccccc1N1CCOCC1)c1cc(-c2ccco2)nc2ccccc12,1.4
14,CC(=O)Nc1ccc(NC(=O)CSc2ccc(-c3ccco3)nn2)cc1,-2.54
15,O=C(O)COc1ccc(Oc2ccccc2)cc1,4.36
16,Cc1cc2nc(SCCN3CCCC3)[nH]c2cc1C,-17
17,COc1ccc(CNC(=O)CN2C(=O)c3ccccc3C2=O)cc1,14.5
18,O=c1[nH]c(N2CCN(Cc3ccc4c(c3)OCO4)CC2)nc2c1CCC2,3.47
19,COc1cc(S(=O)(=O)N2CCOCC2)ccc1NC(=O)CSc1n[nH]c(=O)[nH]c1=O,7.55
20,CC(C)CN(C(=O)c1cccc(S(=O)(=O)N2CCCCC2)c1)C1CCS(=O)(=O)C1 (stereo not drawn),0.956
21,Cc1cccc(CSc2cccc3cccnc23)c1,3.05
22,NNc1cc(C(=O)O)ccc1Cl,2.55
